At least one structure is not confirmed: it was looked up by name or label, or the drawing left a doubt.
How the values were obtained:
[1] = molecular target: T1, GDP-KRAS G12D mutant protein (Homo sapiens, UniProt P01116, G12D); assay: Differential scanning fluorimetry (DSF) binding affinity to GDP-KRAS G12D mutant protein; conditions: DSF thermal shift, 10 μM compound, 4 μg KRAS protein
T1 construct: purchased Daegu Gyeongbuk Medical Innovation Foundation (DGMIF), made to order
Procedure: (§1) Test Example 1: Measurement of Binding Affinity to KRAS G12D Mutant Protein The binding affinities of the compounds according to one embodiment of the present application to the KRAS G12D mutant protein were evaluated using differential scanning fluorimetry (DSF). Differential scanning fluorimetry (DSF) is a method used to study the stability of a protein upon binding to a compound. The experiment can be performed using a real-time PCR (RT-PCR) instrument, and is commonly employed as a screening technique for small-molecule compounds targeting specific proteins. As the temperature increases, folded proteins begin to unfold, during which a hydrophobic dye such as SYPRO Orange binds to the exposed hydrophobic regions of the protein, resulting in a measurable increase in fluorescence intensity (maximum absorption at 470 nm and maximum emission at 570 nm). Protein-compound binding is determined by the difference in the melting temperature (Tm) of the protein in the presence of the compound compared to the Tm in the absence of the compound, expressed as ΔTm. The binding affinity to the KRAS G12D mutant protein was measured using the Protein Thermal Shift Dye kit (#4461146, Applied Biosystems). The GDP-KRAS G12D mutant protein and GppNHp-KRAS G12D mutant protein used in the experiment were recombinant proteins synthesized by the Daegu Gyeongbuk Medical Innovation Foundation (DGMIF) upon request. The analysis of binding between the compound and the KRAS G12D mutant protein was performed according to the following reaction recipe: each test sample contained 4 μg of KRAS protein, 10 μM of the compound, and 2×SYPRO Orange dye. For the GDP-KRAS G12D protein samples, the buffer provided with the Protein Thermal Shift Dye kit was used, while for the GppNHp-KRAS G12D protein samples, 50 mM HEPES (pH 7.5) buffer was used. For the protein-compound binding reaction, the compound was added to the KRAS G12D mutant protein and reacted at room temperature for 30 minutes, followed by the addition of 2×SYPRO Orange dye. The temperature was increased to 25° C.-99° C. (0.05° C./s) using QuantStudiol RT-PCR instrument (Applied Biosystems), and fluorescence was measured using a ROX reporter with filters of 580±10 nm (excitation)/623±14 nm (emission). The measurements obtained at a compound concentration of 10 μM were analyzed using the Protein Thermal Shift Software program (version v1.4, Thermo Fisher Scientific), and the ΔTm (° C.) values, which indicate the binding affinity of the compound to the KRAS G12D mutant protein, were calculated. The DSF measurement results for the compounds according to one embodiment of the present application with respect to the KRAS G12D mutant protein are shown in Table 2.

[2] = molecular target: T2, GppNHp-KRAS G12D mutant protein (Homo sapiens, UniProt P01116, G12D); assay: Differential scanning fluorimetry (DSF) binding affinity to GppNHp-KRAS G12D mutant protein; conditions: DSF thermal shift, 10 μM compound, 4 μg KRAS protein, 50 mM HEPES (pH 7.5)
T2 construct: purchased Daegu Gyeongbuk Medical Innovation Foundation (DGMIF), made to order
Procedure: as §1

SMILES	GDP-KRAS G12D (ΔTmD, ° C.) [1]	GppNHp-KRAS G12D (ΔTmD, ° C.) [2]
C#Cc1c(F)ccc2cc(O)cc(-c3cc4nc(OC[C@@]56CCCN5C[C@H](F)C6)nc(NCC5(N(C)C)CCC5)c4n4ccnc34)c12 [Example 6, 4-(1-(((1-(dimethylamino)cyclobutyl)methyl)amino)-3-(((2R,7aS)-2-fluorotetrahydro-1H-pyrrolizin-7a(5H)-yl)methoxy)imidazo[1′,2′:1,6]pyrido[3,2-d]pyrimidin-6-yl)-5-ethynyl-6-fluoronaphthalen-2-ol]	1.01 °C	1.31 °C
Cc1cc(N)nc(-c2cc3nc(OC[C@@]45CCCN4C[C@H](F)C5)nc(N4C[C@H]5CC[C@@H](C4)N5)c3n3ccnc23)c1C(F)(F)F [Example 34, 6-(1-((1R,5S)-3,8-diazabicyclo[3.2.1]octan-3-yl)-3-(((2R,7aS)-2-fluorotetrahydro-1H-pyrrolizin-7a(5H)-yl)methoxy)imidazo[1′,2′:1,6]pyrido[3,2-d]pyrimidin-6-yl)-4-methyl-5-(trifluoromethyl)pyridin-2-amine]	0.13 °C	−0.32 °C
CCc1c(F)ccc2cc(O)cc(-c3c(F)c4nc(OC[C@@]56CCCN5C[C@H](F)C6)nc(N5C[C@H]6CC[C@@H](C5)N6)c4c4cc(C)oc34)c12 [Example 45, 4-(1-((1R,5S)-3,8-diazabicyclo[3.2.1]octan-3-yl)-5-fluoro-3-(((2R,7aS)-2-fluorotetrahydro-1H-pyrrolizin-7a(5H)-yl)methoxy)-8-methylfuro[3,2-n]quinazolin-6-yl)-5-ethyl-6-fluoronaphthalen-2-ol]	11.82 °C	7.68 °C
Cc1cc2c(o1)c(-c1cc(O)cc3ccc(F)c(F)c13)c(F)c1nc(OC[C@@]34CCCN3C[C@H](F)C4)nc(N3C[C@H]4CC[C@@H](C3)N4)c12 [Example 46, 4-(1-((1R,5S)-3,8-diazabicyclo[3.2.1]octan-3-yl)-5-fluoro-3-(((2R,7aS)-2-fluorotetrahydro-1H-pyrrolizin-7a(5H)-yl)methoxy)-8-methylfuro[3,2-n]quinazolin-6-yl)-5,6-difluoronaphthalen-2-ol]	11.68 °C	6.49 °C
Cc1cc2c(o1)c(-c1cc(O)cc3ccccc13)c(F)c1nc(OC[C@@]34CCCN3C[C@H](F)C4)nc(NCC3(N(C)C)CCC3)c12 [Example 47, 4-(1-(((1-(dimethylamino)cyclobutyl)methyl)amino)-5-fluoro-3-(((2R,7aS)-2-fluorotetrahydro-1H-pyrrolizin-7a(5H)-yl)methoxy)-8-methylfuro[3,2-n]quinazolin-6-yl)naphthalen-2-ol]	2.65 °C	1.90 °C
C#Cc1c(F)ccc2cc(O)cc(-c3c(F)c4nc(OC[C@@]56CCCN5C[C@H](F)C6)nc(NCC5(N(C)C)CCC5)c4c4cc(C)oc34)c12 [Example 48, 4-(1-(((1-(dimethylamino)cyclobutyl)methyl)amino)-5-fluoro-3-(((2R,7aS)-2-fluorotetrahydro-1H-pyrrolizin-7a(5H)-yl)methoxy)-8-methylfuro[3,2-n]quinazolin-6-yl)-5-ethynyl-6-fluoronaphthalen-2-ol]	8.41 °C	6.78 °C
Cc1cc(N)nc(-c2c(F)c3nc(OC[C@@]45CCCN4C[C@H](F)C5)nc(N4C[C@H]5CC[C@@H](C4)N5)c3c3cc(C)oc23)c1 [Example 52, 6-(1-((1R,5S)-3,8-diazabicyclo[3.2.1]octan-3-yl)-5-fluoro-3-(((2R,7aS)-2-fluorotetrahydro-1H-pyrrolizin-7a(5H)-yl)methoxy)-8-methylfuro[3,2-n]quinazolin-6-yl)-4-methylpyridin-2-amine]	0.30 °C	0.00 °C
Cc1cc2c(o1)c(-c1nc(N)cc(C)c1I)c(F)c1nc(OC[C@@]34CCCN3C[C@H](F)C4)nc(N3C[C@H]4CC[C@@H](C3)N4)c12 [Example 53, 6-(1-((1R,5S)-3,8-diazabicyclo[3.2.1]octan-3-yl)-5-fluoro-3-(((2R,7aS)-2-fluorotetrahydro-1H-pyrrolizin-7a(5H)-yl)methoxy)-8-methylfuro[3,2-f]quinazolin-6-yl)-5-iodo-4-methylpyridin-2-amine]	−0.30 °C	0.15 °C
Cc1cc2c(o1)c(-c1cc(N)cc(C)c1C(F)(F)F)c(F)c1nc(OC[C@@]34CCCN3C[C@H](F)C4)nc(N3C[C@H]4CC[C@@H](C3)N4)c12 [Example 56, 3-(1-((1R,5S)-3,8-diazabicyclo[3.2.1]octan-3-yl)-5-fluoro-3-(((2R,7aS)-2-fluorotetrahydro-1H-pyrrolizin-7a(5H)-yl)methoxy)-8-methylfuro[3,2-n]quinazolin-6-yl)-5-methyl-4-(trifluoromethyl)aniline]	−0.75 °C	−2.53 °C
C#Cc1c(F)ccc2cc(O)cc(-c3c(F)c4nc(O[C@@H](C)[C@@H]5CCCN5C)nc(N5C[C@H]6CC[C@@H](C5)N6)c4c4cc(C)oc34)c12 [Example 61, 4-(1-((1R,5S)-3,8-diazabicyclo[3.2.1]octan-3-yl)-5-fluoro-8-methyl-3-((S)-1-((S)-1-methylpyrrolidin-2-yl)ethoxy)furo[3,2-n]quinazolin-6-yl)-5-ethynyl-6-fluoronaphthalen-2-ol]	3.54 °C	0.58 °C
C#Cc1c(F)ccc2cc(N)cc(-c3c(F)c4nc(OC[C@@]56CCCN5C[C@H](F)C6)nc(N5[C@@H]6CC[C@H]5CNC6)c4c4cc(C)oc34)c12 [Example 67, 4-(1-((1R,5S)-3,8-diazabicyclo[3.2.1]octan-8-yl)-5-fluoro-3-(((2R,7aS)-2-fluorotetrahydro-1H-pyrrolizin-7a(5H)-yl)methoxy)-8-methylfuro[3,2-n]quinazolin-6-yl)-5-ethynyl-6-fluoronaphthalen-2-amine]	10.06 °C	8.28 °C
Cn1cc2c(n1)c(-c1ccc(F)c3sc(N)c(C#N)c13)cc1nc(OC[C@@]34CCCN3C[C@H](F)C4)nc(N3C[C@H]4CC[C@@H](C3)N4)c12 [Example 77, 4-(9-((1R,5S)-3,8-diazabicyclo[3.2.1]octan-3-yl)-7-(((2R,7aS)-2-fluorotetrahydro-1H-pyrrolizin-7a(5H)-yl)methoxy)-2-methyl-2H-pyrazolo[4,3-f]quinazolin-4-yl)-2-amino-7-fluorobenzo[b]thiophene-3-carbonitrile]	1.76 °C	2.35 °C
Cc1cc2[nH]nc(C)c2c(-c2c(F)c3nc(OC[C@@]45CCCN4C[C@H](F)C5)nc(N4C[C@H]5CC[C@@H](C4)N5)c3c3cn(C)nc23)c1Cl [Example 89, 9-((1 R,5S)-3,8-diazabicyclo[3.2.1]octan-3-yl)-4-(5-chloro-3,6-dimethyl-1H-indazol-4-yl)-5-fluoro-7-(((2R,7aS)-2-fluorotetrahydro-1H-pyrrolizin-7a(5H)-yl)methoxy)-2-methyl-2H-pyrazolo[4,3-f]quinazoline]	2.80 °C	0.42 °C
C#Cc1c(F)ccc2cccc(-c3c(F)c4nc(OC[C@@]56CCCN5CC(=C(F)F)C6)nc(N5C[C@H]6CC[C@@H](C5)N6)c4c4cn(C)nc34)c12 [Example 101, 9-((1R,5S)-3,8-diazabicyclo[3.2.1]octan-3-yl)-7-(((S)-2-(difluoromethylene)tetrahydro-1H-pyrrolizin-7a(5H)-yl)methoxy)-4-(8-ethynyl-7-fluoronaphthalen-1-yl)-5-fluoro-2-methyl-2H-pyrazolo[4,3-n]quinazoline]	7.99 °C	2.55 °C
